# Read counts are not given, so values of variants with three or more changes are uncertain.
# B1: LINE1-full (parent)
# chain: UACGUAGGUGGUUUUCCCCUGAUAGUGCUAAGGGGGCCUGGAAGUUUGGACUGGGCAGAGCUCAACACAGCGUGGCAAAGUGGCUGUGGCUAGACUGCCUCUCUGGAUUCCUCGUCACUCAGCAGGGCAUCUCUGAGAGAAAUGCC
# Variants of: B1
# Assay: self-cleavage, relative activity (ratio to wild type); higher = more cleavage; in vitro, sequencing; the parent is a self-cleaving ribozyme
row,Variant,self-cleavage
1,UACGUAGGUGGUUUUCCCCUGGUAGUGCUAAGAGGGCCUGGAAGUUUGGACUGGGCAGAGCUCGACACAGCGUGGCAAAGUGGCUUUGGCUAGGCUGCCUCUCUGGAUUCCUCGUCACUCAGCAGGGCAUCUCUGAGAGAAAUGCC [A22G G33A A64G G86U A94G],0.11
2,UACGUAGGUGGUUUUCCCCUAAUAGUGCUAAGGGGGCCUGGAAGUGUGGACUGGGCAGAGCUCAACACAGCGUGGGAAAGAGGCUGUGGCUAGACUGCCUCUCUGGAUUCCUCGUCACUCAGCAGGGCAUCUCUGAGAGAAGUGCC [G21A U46G C76G U81A A142G],2.5
3,UACGUAGGUGGUUUUCCCCUGAUAUUGCUAAGGGGGCCUGGGAGUUUGGACUGGGCAGAGCUCAACACAGCGUGGCAAAGUGGCUGUGGCUAGACUGCCCCUCUGGAUUCCUCGUCACUCAGCAGGGCAUCUCUGAGUGAAAUGCC [G25U A42G U100C A138U],1.08
4,CACGUAGGUGGUUUUCCCCUGAUAGUGCUAAGGGGGCCUGGAAGUUUGGACUGGGCAGAGCUCAACACAGCGUGGCAAAGUGGCUGUGGCUAGACUGCCUCUCUGGAUUCCUCGUCACUCAGCAGGGCUUCUCUGAGAGAAAUGUC [U1C A129U C145U],0.46
5,UACGUAGGCGGUUUUCCCCUGAUAGUGCUAAGGGGGCCUGGAAGUUUGGACUGGGCAGAGCCCAACACAGCGUGACAAAGUGGCUGUGGCUAGACUGCCUCUCUGGAUUCCUCGUCACUCAGCGGGGCAUCUCUGAGAGGAAUGCC [U9C U62C G75A A124G A140G],0
6,UACGUAGGUGGUGGUCCCCUGAUAGUGCUAUGGGCGCCUGGAAGUUUGGACUGGGCAGAGCUCAACACAGCGUGGCAAAGUGGCUGUGGCUAGACUGCCUCUCCGGAUUCCUCGUCACUCAGCAGGGCAUCUCUGAGAGAAAUGCC [U13G U14G A31U G35C U104C],1.22
7,GACGUGGGUGGUUUUCCCCUGAUAGUGCUAAGGGGGCCUGGAAGUUUGGACUGGGCAGAGCUCGACACAGCGUGGCAAAGUGGCUGUGGCUAGACUGCCUCUCUGGAUUCCUCGUCACUCAGCAGGGCAUCUCUGAGAGAAAUGCC [U1G A6G A64G],0.38
8,UACGUAGGUGGUUUUCCCCUGAUAGUGCUAAGGGGGCCUGGAAGUAUGGACUGGGCAGAGCUCAACACAGCGUGGCAAAGUGGCUGUGGCUAGACCGCCUCUCUGGAUUCCUCGUCACUCAGCAGGGCAUCUCUGAGAGAAAAGCC [U46A U96C U143A],0.05
9,UACGUAGGUGGUUUUCCCCUGAUAGUGCUAAGGGGGCCUGGAAGUUUGGACUGGGCUGAGCCCAACACAGCGUGGCAAAGUGGCUGUGGCUAGACCGCCUCUCUGGAUUCCUCGUCACUCAGCAGGGCAUCUCUGAGAGAAAUGCC [A57U U62C U96C],0.08
10,UACGUAGGUGGUUAUCCCCUGAUAGUGCUAAGGGGGCCUGGAAGUUUGGACUGAGCAGAGCUCAACACAGCGUGGCAAAGUGGCUGUGGCUAGACUGCCUCUCUGGAUUCCUCGUCACUCAGCAGGGCAUCUCUGAGAGAGAUGCC [U14A G54A A141G],0.36
11,UACGUAGGUGGUUUUCCCCUGAUAGUGCUAAGGGGGCCUUGAGGUUUGGACUGGGCAGAGCUCAACACAGCGUGGCAGAGUGGCUGUGGCUAGACUGCCUCUCUGGAUUCCUCGUCACUCAGCAGGGCAUCUCUGAGAGAAAAGCC [G40U A43G A78G U143A],0.94
12,UACGUUGGUGGUUUUCCCCUGAUAGUGCCAAGGGGGCCUGGAAGUUUGGUCUGGGCAGAGCUCAACACAGCGUGGCAGAGUGGCUGUGGCUAGACUGCCUCUCUGGAUUCCUCGUCACUCAGCAGGGCAUCUCUGAGAGAAGUGCC [A6U U29C A50U A78G A142G],0.57
13,UACGUAGGCGAUUUUCCCCUGAUAGUGCUAAGGAGGCCUGGAAGUUUGGACUGGGCAGAGCUCAACACAGCGUGGCAAAGUGGUUGUGGCUAGACUGCCUCUCUGGAUUCCUCGUCACUCAGCAGGGCAUCUCUGAGAGAAAUGCC [U9C G11A G34A C84U],0.37
14,UACGUAGGUGGUUUUCCCCUGAUAGUGCUAAGGGGGCCUGGAAGUUUGGACUGGGCAGAGCUCAACACAGCGUGGCAAAGGGGCUGUGGCUAGUCUGCCUCUCUGGAUUCCUCGUCACUCAGCAGGGCACCUCUGAGAGAAAUGCU [U81G A94U U130C C146U],0.37
15,UACGUAGGUGGUUUUCCCCUGAUAGUGCUAAGGGGGCCUGGAAGUUUGGACUGGGCAGAGCUCAGCACAGCGAGGCAAAGUGGCUGUGGCUAGACCGCCUCUCUGGAUUCCUCGUCACUCAGCGGGGCAUCUCUGAGAGAAAUGCC [A65G U73A U96C A124G],0
16,UACGUAGGUGGUUUUCCCCUGAUAGUGCUAAGGGGGCCUGGAAGUUUGGACUGGGCAGAGCUCAACACAGCGCGGCAAAGUGGCUGUGGCUAGUCUGCCUCUCUGGAUUCCUCGUCACUCAGCAGGGCAUCUCUGAGAGGAAUGCC [U73C A94U A140G],0.49
17,UACGUAGGUGGUUUUCCCCUGACAGUGCUAAGGGGGCCUGGAAGUUUGGACUGGGCAGAGCUCAACACAGCGUGGCAAAGUGGCUGUGGCUGGACUGCCUCUCUGGAUUCCUCGUCUCUCAGCAGGGCAUCUCUGAGAGAAAUGCC [U23C A92G A117U],0.2
18,UACGUAGGUGGUUUUCCCCUGAUAGUGCUAAGGGGGCCUGGAAGUUUGGACUGGGCAGAGCUCAACACAGCGCGGCAAUGCGGCUGUGGCUAGACUGCCUCUCUGGAUUCCUCGUCACUCAGCAGGGCAUCUCUGAGAGAAAUGCC [U73C A79U U81C],1.66
19,UACGUAGGUGGUUUUCCCCUGAUAGUGCUAAGGGGGCCUGGAAGUUUGGACUGGGCAGAGCUCAACACAGCGUGGCAAAGUGGCUGUGGCUAGACUGCCUCUCUGGAUUCCUCGUCGCUCAGCAGGGCGCCUCUGAGAGAAAUGCC [A117G A129G U130C],0.77
20,UACGUAGGUGGUUUUCCCCUGAUAGUGCUAAGGGGGCCUGGAAGUUUGGGCUGGGCAGAGCUCAACACAGCGUGGCAAAGUGGCUGUGGCUAGACCGCCUCUCUGGAUUCCUCGUCACUCAGCUGGGCAUCCCUGAGAGAGAUGCC [A50G U96C A124U U132C A141G],0

row,Variant,self-cleavage
1,UACGUAGGUGGUUUUCCCCUGAUAGUGCUAAGGGGGCCUGGAAGUUAGGUCUGGGCAGAGCUCAACACAGCGUGGCUAAGUGGCUGUGGCUAGACUGCCUCUCUGGAUUCCUCGUCACUCGGCAGGGCAUCUCUGAGAGAAAUGCC [U47A A50U A77U A121G],1
2,UACGUAGGUGGUUUUCCCCUGAUAGUGCUAAGGGGGCCUGGAAGUUUAGACUGGGCAGAGCUCAACACAGCGUGGCAAAGUGGCUGUGGCUAGACUGCCUCUCUGGGUUCCUCGUCACUCAGCAGGGCAUCUCCGAGAGAAAUGCC [G48A A107G U134C],1.71
3,UACGUAGGUGGUUUUCCCCUGAUAGUGCGAAGGGGGCCUGGAAGUUUAGACUGGGCAGAGCUCAACACAGCGUGGCAAAGUGGCUGUGGCUAGACUGCCUCUCUGGAUUCCUCGUCACUCUGCAGGGCAUCUCUGAGAGAAAUGCC [U29G G48A A121U],0.98
4,UACGUAGGUGGUAUUCCCCUGAUAGUGCUAGGGGGGCCUGGAAGUUUGGACUGGGCAGAGCUCAACACAGCGUGGCAAAGUGGCAGUGGCUAGACUGCCUCCCCGGAUUCCUCGUCACUCAGCAGGGCAUCUCUGAGAGAAAUGCC [U13A A31G U85A U102C U104C],0.32
5,UACGUAGGUGGUUUUCCCCUGAUAGUGCUAAGGGGGCCUGGAAGUUUGGACUGAGCAGAGCUCGACACAGCGUGGCAAAGUGGCUGUGGCUAGACUGCCUCUCUGGAUUCCUCGUCGCUCAGCAGGGCAUCUCUGAGAGAAAUGCC [G54A A64G A117G],0.28
6,UACGUAGGUGGUUUUCCCCUGAUAGUGCUAAGGGGGCCUGGAAGUUUGGACUGGGCAGGGCUCAACACAGCGUGGCAAAGUGGCAGUGGCUAGACUGCCUCUCUGGAUUCCUCGUCACUCAGCAGGGCCUCUCUGAGGGAAAUGCC [A59G U85A A129C A138G],0
7,UACGUAGGCGGUUUUCCCCUGAUAGUGCUAAGGGGGCCUGGAAGUUUGGGCUGGGCAGAGCUCAACACAGCGUGGCAAAGUGGCUGUGGCUAGACUGCCUCUCUGGAUUCCUCGCCACUCAGCAGGGCAUCUCUGAGAGAAAUGCC [U9C A50G U115C],1.46
8,UACGUGGGUGGGUUUCCCCUGAUAGCGCUAAGGGGGCCUGGAAGUUUGGACUGGGCAGAGCUCAACACAGCGUGGCAAAGUGGCUGUGGCUAGACUGCCUCUCUGGAUUCCUCGUCACUCAGCAGGGCAUCUCUGAGAGGAAUGCC [A6G U12G U26C A140G],1.5
9,UACGUAGGUGGUUUUCCCCUGAUAGUGCUAAGGGGGCCUGGAAGUUUGGACUGGGCAGAGCUCGACACAGCGUGGCAAAGUGGUUGCGGCUAGACUGCCUCUCUGGAUUCCUCGUCACUCAGCAGGGCAUCUCUGAGAGAAAUGCC [A64G C84U U87C],0.07
10,UACGUAGGUGGUUUUCACCUGAUAGUGCUAAGGGGGCCUGGAAGUUUGGGCUGGGCAGAGCUCAACACAGCGUGGCAAAGUGGCUGUGGCUAGACUGCCCCUCUGGAUUCCUCGUCACUCAGCAGGGCAUCUCUGAGAGAAAUGCC [C17A A50G U100C],1.72
11,UACGUAGGUGGUUUUCCCCUGAUAGUGCUAAGGGGGCCUGGAAGUUUGGACUGGGCAGAGCUCAACACAGCGAGGCAAAGUGGCUGUGGCUAGACCGCCUCUCUGGAUUCCUCGUCACUCAGCAGGGCAUCUCUGAGGGAAAUGCC [U73A U96C A138G],0.24
12,UACGUAGGUGGUUCACCCCUGAUAGUGCUAAGGGAGCCUGGAAGUUUGGACUGGGCAGAGCCCAAUACAGCGUGACAAAGUGGCUGUGGCUAGACUGCCUCUCUGGGUUCCUCGUCACUCAGCAGGGCAUCUCUGAGAGAAAUGCC [U14C U15A G35A U62C C66U G75A A107G],0.06
13,UACGUAGGUGGUCUUCCCCUGAUAGUGCUAAGGGGCCCUGAAAGUUUGGACUGGGCAGAGCUCAACACAGCGUGGCAAAGUGGCUGUGGCUAGACUGCCUCUCUGGAUUCCUCGUCGCUCAGCAGGGCAUCUCUGAGAGAAAUGCC [U13C G36C G41A A117G],0
14,UACGUUGGUGGUUUCCCCCUGAUAGUGCUAAGGGGGCCUGGAAGUUUGGACUGGGCAAAGCUCAACACGGCGUGGCAAAGUGGCUAUGGCUAGACUGCCACUCUGGAUUCCUCGCCACUCAGCAGGGCAUCUCUGAGAGAGAUGCC [A6U U15C G58A A69G G86A U100A U115C A141G],0.03
15,UACGUAGGUGGUUUUCCCCUGAUAGUGCUAAGGGGGCCUGGAAGUUUGGACUGGGCAGAGCUCAACACAGCGUAGCAAAGUGGCUGUGGCUAGGCUGCCUCUCUGGAUUCCUCGUCACUCAGCAGGGCAUCUCUGAGAGAAGUGCC [G74A A94G A142G],0.05
16,UACGUAGGUGGUUUUCCCCUGAUAGUGCUAAGGGGGCCUGGAGGCUUGGACUGGGCAGAGCUCAACACAGCGUGGCAAAGUGGCUGUGGCUAGACUGCCUCUCUGGAUUCCACGUCACUCAGCAGGGCAUCUCUGAGAGAAAUGCC [A43G U45C U112A],1.91
17,UACGUAGGUGGUUUUCCCCUGAUAGUGCUAAGGGGGCUUGGAAGUUUGGACUGGGCAGAGCUCAACACAGCGUGGCAAAGUGGCUCUGGCUGGACUGCCUCUCUGGAUUCCUCGUCACUCAGCAGGGCAUCUCUGAGAGAAAUGCC [C38U G86C A92G],0.08
18,UACGUAGGUGGUUUUCACCUGAUAGUGCUAAGGUGGCCUGGAAGUUUGGACUGGGCAGAGCUCAACACAGCGUGGCAAAGUGGCUGUGGGUAGACUGCCUCUCUGGAUUCCUCGUCACUCAGCAGGGUAUCUCUGAGAGAAAUGCC [C17A G34U C90G C128U],0.02
19,UACGUAGGUGGCUCUCCCCUGAUAGUGCUAAGGGGGCCUGGAAGUUUGGACUGGGCAGAGCUCAACGCAGCGUGGCAAAGUGGCUGUGGCUAGACUGCCUCUCUGGAUUCCUCGUCACUCAGCAGGGCCUCUCUGAGAGAAAUGCC [U12C U14C A67G A129C],0
